# In PubChem BioAssay AID1345082 (National Center for Advancing Translational Sciences (NCATS), 2018):
# In all, about 94,000 compounds went through this assay and about 4,000 (4.3%) were called active. Inconclusive results, whose numbers are uncertain, are shown with a selection of clear calls. The call rests on the fitted dose curve; in most records, active means well fitted inhibition curve with a large enough effect; inconclusive means small, poorly fitted or top-dose-only effect; inactive means no such curve, though single readings can be large or run the other way. Where the call is inconclusive, the potency comes from a doubtful curve fit.
# Assay: Cytotoxic Profiling in NIH 3T3 Cell Line of Diverse Libraries Using Quantitative High-Throughput Screening; further: nearly all actives have a fitted effect of over 55% in size
# Settings: NIH 3T3 viability, CellTiter-Glo ATP luminescence, 48-72 h; activity change, negative = cytotoxicity: at 96.7 µM (top of the series) unless noted; series mostly up to 96.7 µM
# Summary of the method: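 Viability of NIH 3T3 cells after 48 or 72 hr compound treatment at 37 °C was assessed by CellTiter-Glo, with luminescence imaged following a 10 min room-temperature step.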
# On the % scale 0 is the no-effect control and ±100 the full control effect; potency means the concentration at half of the fitted maximal effect; tags describe the fitted curve by direction and shape.
SMILES,Potency,"activity change, negative = cytotoxicity"
CC1(c2ccccc2)N(Cc2cccnc2)C(=O)OC12CCN(Cc1ccc3c(c1)CCO3)CC2 (stereo not given),"inconclusive: 56.2 µM [inhibitor, partial curve, poor fit]",–
CCN(CC)c1ccc(C(=O)NCc2nnc3cc(-c4nc(C)no4)ccn23)cc1,"inconclusive: 6.31 µM [inhibitor, full curve, poor fit]",–
O=C(c1n[nH]c2c1CCCC2)N1CCC2(CC1)NC(=O)N(c1ccccc1)N2,"inconclusive: 31.6 µM [inhibitor, partial curve, poor fit]",–
Cc1nn(-c2ccccc2)c2c1C(C1CC1)N(C1CN(C(=O)c3ccc(Cl)cc3)C1)C2=O (stereo not given),"inconclusive: 12.6 µM [inhibitor, full curve, poor fit]",–
O=C(O)CCn1ncc2cc(OCc3ccc(-c4cncnc4)cc3)ccc21,active: 44.7 µM,–
C[S+](=O)([O-])N1CC2(CCN(Cc3cccnc3)CC2)Cc2ccccc21,–,inactive: -0.535%
CC(C)C(=O)N1CCC2(CC1)OC(=O)N(CCOc1ccccc1)C2(C)c1cccnc1 (stereo not given),"inconclusive: 10 µM [inhibitor, full curve, poor fit]",–
Cc1cccc(CC(=O)N2CC(c3nc(CCc4ccccc4)no3)C2)c1,"inconclusive: 44.7 µM [inhibitor, partial curve, poor fit]",–
COc1ccc(-c2ccc(C(=O)N3CCN([S+](=O)([O-])c4cccs4)CC3)cc2)nn1,–,inactive: -25.1%
CCN1c2cc(C(=O)Nc3ccc(C(C)C)cc3)ccc2C(=O)N2CCCCCC21 (stereo not given),active: 22.4 µM,–
O=C1NCc2ccccc2CC12CCCCN2Cc1cc2ccccc2o1 (stereo not given),"inconclusive: 70.8 µM [inhibitor, single point]",–
O=C(c1cc(Cl)ccc1Cl)N1CCN(c2cc(-c3cccs3)[nH]n2)CC1,"inconclusive: 12.6 µM [inhibitor, full curve]",–
NC(=O)Cc1c[nH]c2ncc(-c3ccc(F)c(Cl)c3)cc12,"inconclusive: 39.8 µM [inhibitor, partial curve, poor fit]",–
CCc1ccccc1OCCN(C)Cc1ncc[nH]1,–,inactive: -17.3%
Cc1ccccc1C(=O)N1CCC(N2CC3CCCN3C2=O)CC1 (stereo not given),"inconclusive: 89.1 µM [inhibitor, partial curve, poor fit]",–
COc1ccc(-c2cc(N3CCCC(NC(=O)c4c[nH]c5ccccc45)C3)n[nH]2)cc1 (stereo not given),"inconclusive: 39.8 µM [inhibitor, partial curve, poor fit]",–
C[S+](=O)([O-])Nc1cccc(-c2cc3c(ccn3Cc3ccncc3)c(N3CCOCC3)n2)c1,"inconclusive: 50.1 µM [inhibitor, partial curve, poor fit]",–
CN1CCCC2(Cc3ccccc3CN(C(=O)Cc3cccc(Cl)c3)C2)C1 (stereo not given),"inconclusive: 50.1 µM [inhibitor, single point]",–
COCCN1C(=O)CS(=O)(=O)C12CCN(C(=O)c1ccccc1F)CC2,–,inactive: -18.1%
COC(=O)N1CCCN(c2ccnc3ccnn23)CC1,"inconclusive: 79.4 µM [inhibitor, partial curve]",–

SMILES,Potency,"activity change, negative = cytotoxicity"
c1cc(-c2nc(-c3ccc(OC4CNC4)cc3)no2)ccn1,"inconclusive: 28.2 µM [inhibitor, partial curve]",–
Cc1ccc(C2Cn3nnc(-c4noc(-c5n[nH]c6c5CCCC6)n4)c3CO2)cc1 (stereo not given),"inconclusive: 44.7 µM [inhibitor, partial curve, poor fit]",–
COCc1nc(C2CCCN(C(=O)c3ccc(OC)cc3)C2)no1 (stereo not given),–,inactive: 2.77%
CNC(=O)c1cc(C2CC2)nc2onc(C3CCN(C(=O)c4ccc(Cl)cc4)C3)c12 (stereo not given),"inconclusive: 50.1 µM [inhibitor, partial curve, poor fit]",–
O=C(COc1ccccc1)N1CCOc2ccc(CN3CCc4ccccc4C3)cc2C1,"inconclusive: 50.1 µM [inhibitor, partial curve, poor fit]",–
Cc1cn2nc(-c3nc(C4CCCN(C(=O)c5ccc(C)s5)C4)no3)cc2c(=O)[nH]1 (stereo not given),"inconclusive: 39.8 µM [inhibitor, partial curve, poor fit]",–
Cc1ccc(S(=O)(=O)N2CCC3(CC2)C(=O)N(CC(=O)NC(C)C)CN3c2ccccc2)cc1,"inconclusive: 50.1 µM [inhibitor, partial curve, poor fit]",–
CCc1ccccc1S(=O)(=O)N1CCN(C2CCN(Cc3cccnc3)C2=O)CC1 (stereo not given),"inconclusive: 79.4 µM [inhibitor, partial curve, poor fit]",–
Clc1ccc(-c2cnc([C@@H]3COCCN3Cc3c[nH]c4ccccc34)[nH]2)s1,active: 79.4 µM,–
CCN(CC1CCN(CCc2ccccc2C)CC1)C(=O)C1C=CCN1 (stereo not given),"inconclusive: 89.1 µM [inhibitor, single point]",–
FC(F)(F)c1ccc(CN2CC[C@H](c3nc4ccc(C(F)(F)F)cc4[nH]3)C2)cc1,active: 31.6 µM,–
O=C(CC1CCCCC1)N1CCN(c2cc(-c3ccccc3)[nH]n2)CC1,"inconclusive: 44.7 µM [inhibitor, partial curve, poor fit]",–
COc1cccc(C(=O)N2CCCC3(C2)NC(=O)N(Cc2ccc(C)cc2)C3=O)c1OC (stereo not given),–,inactive: -8.07%
COCCn1cnc2ccc(-c3cccc(C(F)(F)F)c3)nc2c1=O,"inconclusive: 89.1 µM [inhibitor, partial curve]",–
Cc1noc(C)c1-c1cc2cc(C(C)C)oc2c(NC2CCOCC2)n1,"inconclusive: 79.4 µM [inhibitor, partial curve]",–
Cc1ccccc1OCc1nc(C2CN(C(=O)NCc3ccccc3)C2)no1,"inconclusive: 25.1 µM [inhibitor, full curve]",–
O=C(CNC(=O)c1ccc(-c2cnc3ccccc3c2)cc1)NC1CCCC1,"inconclusive: 50.1 µM [inhibitor, partial curve, poor fit]",–
CC(C(=O)N1CCN(c2cc(-c3ccc(Cl)cc3)[nH]n2)CC1)c1ccccc1 (stereo not given),"inconclusive: 35.5 µM [inhibitor, partial curve, poor fit]",–
O=C(NCc1cccc(C(F)(F)F)c1)c1ccc2nnc(-c3ccc(OC(F)(F)F)cc3)n2c1,"inconclusive: 39.8 µM [inhibitor, partial curve, poor fit]",–
Cc1ccc(-c2ncc(C(=O)N3CCOC(CCN)C3)c(=O)[nH]2)cc1 (stereo not given),–,inactive: 3.16%

SMILES,Potency,"activity change, negative = cytotoxicity"
COc1ccc(CNC(=O)N2CCCCC2c2noc(COc3ccc(C)cc3)n2)cc1 (stereo not given),"inconclusive: 44.7 µM [inhibitor, partial curve, poor fit]",–
COc1ccccc1C(=O)N1CCN(c2ccc3nnc(C4CC4)n3n2)CC1,"inconclusive: 44.7 µM [inhibitor, partial curve, poor fit]",–
CC(C)(C)c1cc(C(=O)NCc2ccc(F)cc2)nn2cccc12,"inconclusive: 56.2 µM [inhibitor, partial curve, poor fit]",–
Cc1ccccc1C(=O)N1CCC(N2C(=O)c3c(c(C)nn3-c3ccccc3)C2C)CC1 (stereo not given),"inconclusive: 50.1 µM [inhibitor, partial curve, poor fit]",–
Cc1c(O)cccc1C(=O)N1CCCN(Cc2ccc(F)cc2)C(C(C)C)C1 (stereo not given),"inconclusive: 79.4 µM [inhibitor, partial curve, poor fit]",–
CCC(CC)C(=O)N1[C@@H](c2ccccc2)[C@@H](C(=O)O)C[C@]12CCCCN(CCOC)C2=O,"inconclusive: 79.4 µM [inhibitor, partial curve, poor fit]",–
Cc1ccc(OCc2cc(C(=O)NC(Cc3ccccc3)c3ccccc3)no2)cn1 (stereo not given),"inconclusive: 22.4 µM [inhibitor, full curve, poor fit]",–
COC(=O)C1=C(C)N=C2SC=C(CC(=O)NCc3ccccc3)N2C1c1cccc(OC)c1 (stereo not given),–,inactive: -10.3%
C[C@@]12CCC(=O)C[C@@H]1C[C@H](OC(=O)NCc1ccccc1)CC2,"inconclusive: 35.5 µM [inhibitor, partial curve, poor fit]",–
CC(C)n1cc2cc(C(=O)NC3CCCCCC3)sc2c1,"inconclusive: 39.8 µM [inhibitor, partial curve, poor fit]",–
COc1ccccc1-c1cccc(CN2CCCC(C(=O)N3CCOCC3)C2)c1 (stereo not given),"inconclusive: 44.7 µM [inhibitor, partial curve, poor fit]",–
COCCS(=O)(=O)c1ncc(CN(C)C(C)c2ccon2)n1Cc1ccccc1 (stereo not given),"inconclusive: 50.1 µM [inhibitor, partial curve, poor fit]",–
O=C(c1ccc(C(F)(F)F)cc1)N1CCC2(COc3ccncc3[S+](=O)([O-])N2)C1 (stereo not given),"inconclusive: 14.1 µM [inhibitor, full curve, poor fit]",–
Clc1ccc(NCCN2CCCC2)cc1,–,inactive: -4.21% [at 174 µM]
CCn1cc(S(=O)(=O)N2CCCC(Cc3noc(-c4cccnc4)n3)C2)cn1 (stereo not given),–,inactive: -10.3%
Cc1noc(C)c1-c1cnc(Nc2cc(F)cc(N3CCOCC3)c2)c2c1CCO2,"inconclusive: 22.4 µM [inhibitor, full curve]",–
COc1ccccc1-c1onc(C)c1C(=O)NCCc1cccc(Cl)c1,"inconclusive: 50.1 µM [inhibitor, single point]",–
CC1=C[C@@H](CNC(=O)Nc2ccccc2)[C@H](C(C)C)C[C@H]1CC(=O)NCc1cccnc1,"inconclusive: 112 µM [inhibitor, partial curve]",–
COc1ccc(-c2cc3c(cn2)CN(CCc2ccccc2)CCN3)cc1OC,active: 39.8 µM,–
COc1cccc(NC(=O)c2ccc3c(c2)NC(C)(COc2cccnc2)CO3)c1 (stereo not given),"inconclusive: 56.2 µM [inhibitor, partial curve, poor fit]",–
